Source: the supplement of paper PMC11417369
The other results are listed elsewhere or left out.

tested on: PfHDP1 homeodomain (GST-tagged); test: gcPBM binding intensity (ln(normalized median fluorescence intensity)); higher = stronger DNA binding
Procedure, shortened: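 Binding intensity values are the highest Masliner-normalised natural-log median intensity among replicate spots of either probe orientation. The binding step lasted 1 h in 1× PBS with 1% milk, 0.2 mg/ml BSA, 0.5% salmon testes DNA and 0.03% Triton X-100, using GST-tagged P. falciparum DNA-binding domains expressed in E. coli on an Agilent 4 × 180k array of primer-extended double-stranded 36-bp intergenic genomic probes plus negative controls. Alexa488 anti-GST antibody and a 488 nm scan detected bound protein.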

With “CATATACATAGACACACACACACATAAATAAATATA [CACACA_site6749]” as the sequence, how does the “gcPBM binding intensity (ln)” value read?
The value was 6.92.

How did the “gcPBM binding intensity (ln)” value turn out when “TTTCCTGGTCAAGGGGTTACGGTTACGTCCTCTTGC [CACACA_negctrl_site856]” was run?
The value was 5.78.

How did the “gcPBM binding intensity (ln)” value turn out when “TTATGTATTTATTTATGTACTAATTGTATGCATATT [XGTACX_site6436]” was run?
Its value is 6.4.

“ATACTTTATAAATACTAAAGTGTATTTTGTAATATA [CACACA_negctrl_site1710]” was tested. Which “gcPBM binding intensity (ln)” value did it give?
Its value is 6.32.

“ATTTGTATATATAATTGTACGCATATTCTATACGAT [XGTACX_site7367]” was tested. Which “gcPBM binding intensity (ln)” value did it give?
The value was 6.35.

“TAAGTGATCGCATAATGTACATATTATTTATTATTT [XGTACX_site3061]” was tested. Which “gcPBM binding intensity (ln)” value did it give?
Its value is 6.42.

“CATACATACATACATACACACATATATAAATATATG [CACACA_site7028]” was tested. Which “gcPBM binding intensity (ln)” value did it give?
Its value is 7.49.

Which “gcPBM binding intensity (ln)” value does the source give for “GGAAGGATATAACATACACACACACCCATATATATA [CACACA_site9376]” here?
Its value is 7.04.

For “TACATTTAAAAAAAAACACACATATTTATATTTATA [CACACA_site7236]”, which “gcPBM binding intensity (ln)” value is on record?
Its value is 6.04.

Which “gcPBM binding intensity (ln)” value does the source give for “ATACATTCTAATACGTGTACATATATATATATATAT [XGTACX_site1881]” here?
The value was 9.49.

How did the “gcPBM binding intensity (ln)” value turn out when “AATAATATTAACACACGTACAAAAGCAAACAACCAA [XGTACX_site7410]” was run?
Its value is 7.16.

For “TTTATATTATTATATCTTATTAATTATTTATCATTT [TGCATGCA_negctrl_site73]”, which “gcPBM binding intensity (ln)” value is on record?
The value was 6.23.

With “ATAAAACAAAAACACACACACATACACAAAAAAAAA [CACACA_site3848]” as the sequence, how does the “gcPBM binding intensity (ln)” value read?
Its value is 6.94.

Which “gcPBM binding intensity (ln)” value does the source give for “GGAGACTTTGTACAAACACACACATGAACACAATAT [CACACA_site8376]” here?
The value was 7.26.

How did the “gcPBM binding intensity (ln)” value turn out when “TCTTCACCACGTGGAAGTACATAAAAAGATACACAA [XGTACX_site4747]” was run?
Its value is 6.77.

How did the “gcPBM binding intensity (ln)” value turn out when “TTTTAATATATAGAGTAACAAATTTGTCTATTAATA [CACACA_negctrl_site1495]” was run?
Its value is 6.6.

Which “gcPBM binding intensity (ln)” value does the source give for “ATGTATATATTTATGTGTACTTAAATTTTTTTTTGT [XGTACX_site8179]” here?
The value was 6.07.

For “TAATTTAAAAATGAACATATATATGTATGTAAATAT [TGCATGCA_negctrl_site135]”, which “gcPBM binding intensity (ln)” value is on record?
Its value is 7.16.

For “CATCTTAAATAAGAACGTACATTTTTTTTGATGAGA [XGTACX_site3462]”, which “gcPBM binding intensity (ln)” value is on record?
Its value is 6.16.

How did the “gcPBM binding intensity (ln)” value turn out when “AAGACAAAACAAAGAAGTACATATATATATATATAT [XGTACX_site4067]” was run?
Its value is 9.36.

Which “gcPBM binding intensity (ln)” value does the source give for “ATATATATATAATATTGTACATAGTAGACATCACAC [XGTACX_site4649]” here?
Its value is 8.43.

For “TCTTATTATAAAAGGAGTACATCAATTAGATGTTCC [XGTACX_site8465]”, which “gcPBM binding intensity (ln)” value is on record?
The value was 6.07.

Which “gcPBM binding intensity (ln)” value does the source give for “CAAAGCATAGTATGATGTACAAATGTTCCTATAATA [XGTACX_site8642]” here?
The value was 6.54.

“TTATGTTTATACACTACACACATTATTCATAAAAAA [CACACA_site4637]” was tested. Which “gcPBM binding intensity (ln)” value did it give?
Its value is 7.19.

How did the “gcPBM binding intensity (ln)” value turn out when “TAAAATATGGAAATCACACATTTATTAAAATATATA [CACACA_site4623]” was run?
The value was 6.01.

How did the “gcPBM binding intensity (ln)” value turn out when “TATACCACCCGATATACACACTTGTAGACATCTTTT [CACACA_site4268]” was run?
Its value is 6.76.

How did the “gcPBM binding intensity (ln)” value turn out when TATGGGTTTATATAGGTGCAATATATGTATATATAA was run?
Its value is 9.53.

Which “gcPBM binding intensity (ln)” value does the source give for “TATATAGTTTATATTTGTACATATAGACATTTATAA [XGTACX_site6414]” here?
The value was 6.21.

Which “gcPBM binding intensity (ln)” value does the source give for “ACAAAACTCTTTAATTGTACAAATATAATATAAAAA [XGTACX_site5690]” here?
Its value is 6.55.

“AGCAATATTTATTAAAGTACGTAAAAAAAATTCTCA [XGTACX_site6550]” was tested. Which “gcPBM binding intensity (ln)” value did it give?
The value was 5.98.

How did the “gcPBM binding intensity (ln)” value turn out when AACCATTGGGAAAGGGTGCACATATATATATATATA was run?
Its value is 9.67.

How did the “gcPBM binding intensity (ln)” value turn out when “TGATGCAAAATATATACACACATATATATATATATA [CACACA_site3052]” was run?
The value was 9.4.

For “GATTATATATTAAAAAGTACTTTATAAATACTTCTA [XGTACX_site8992]”, which “gcPBM binding intensity (ln)” value is on record?
Its value is 6.31.

For “CATATACATTGTATATGTACATATATATATATATAT [XGTACX_site3772]”, which “gcPBM binding intensity (ln)” value is on record?
Its value is 9.33.

With “AGTATATTAAAAAATACACACGTATTATATCTACAT [CACACA_site8844]” as the sequence, how does the “gcPBM binding intensity (ln)” value read?
Its value is 6.37.

With “GTTCATAAATTAAACACACACACACCGCTGGATACC [CACACA_site5779]” as the sequence, how does the “gcPBM binding intensity (ln)” value read?
Its value is 6.82.

With “TAATATACTTAATACACACACGAATATTTATAAATA [CACACA_site6675]” as the sequence, how does the “gcPBM binding intensity (ln)” value read?
The value was 6.97.

With “GATTCATCTAAACACCGTACATATTATATATATATA [XGTACX_site6030]” as the sequence, how does the “gcPBM binding intensity (ln)” value read?
Its value is 8.65.

Which “gcPBM binding intensity (ln)” value does the source give for “AAACTCAACTTATATACACACAATCTTTTTTTTTTA [CACACA_site29]” here?
The value was 6.54.

Which “gcPBM binding intensity (ln)” value does the source give for “CCCCTCGAAATAATTTGTACGAATATATTGTCTGTA [XGTACX_site8308]” here?
The value was 7.59.

Which “gcPBM binding intensity (ln)” value does the source give for “TATTGTATATAATAAACACACAATATTAAAAATATA [CACACA_site1057]” here?
The value was 6.11.

How did the “gcPBM binding intensity (ln)” value turn out when “TATTTAAAAAACACATGTACGAGTATTATATATAAA [XGTACX_site6654]” was run?
Its value is 6.82.

With “GGTTATAACGCACATGCACACGTAAATAAATATTAT [CACACA_site9277]” as the sequence, how does the “gcPBM binding intensity (ln)” value read?
The value was 9.92.

With “TAAATTTTAATAAATACACACAAATTTTAATTCTAT [CACACA_site6039]” as the sequence, how does the “gcPBM binding intensity (ln)” value read?
The value was 6.27.
